# According to the supplement of paper PMC12355420:
# Where “and” joins values, the source holds several entries; their conditions need not be identical. Identical values can stand only once. Counter-ions that a name gives are not always drawn. Some of the results follow. Cut-off read from the data, not from the text of the source: active = 0.5 or less and inactive = the rest. Single values are uncertain, as repeats are few or missing.
# Legend:
# Details in all cases: 50 µM; 24 h
# [1] = tested on: HeLa VPS33A reporter cells; test: relative cell viability (CellMask signal) vs DMSO (fraction of DMSO); higher = less cytotoxic;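 note: primary screen of an FDA-approved drug library in HeLa reporter cells in 96-well format, CellMask signal normalized to DMSO-treated wells set as 1, under 0.5 deemed highly cytotoxic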
# [2] = tested on: HeLa VPS33A R498W KI + HA-SDC1-FLAG; test: relative GAG core protein HA-SDC1 amount per cell number vs DMSO (fraction of DMSO); higher = more SDC1 (GAG core protein);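 note: HA-SDC1 level read out by In-Cell Western staining with an anti-HA antibody against the N-terminal tag, screening FDA-approved library drugs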
# [3] = tested on: HeLa VPS33A KO + NLuc-VPS33A R498W; test: relative mutant VPS33A R498W amount (NanoLuc luminescence) vs DMSO (fraction of DMSO); HeLa model of a glycosaminoglycan (GAG) storage disease; KI is knock-in and KO knock-out; SDC1 is syndecan 1; higher = higher mutant VPS33A level;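 note: screen of an FDA-approved drug library, NanoLuc luminescence read after lysing the treated cells, taken as a measure of mutant VPS33A protein stability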
SMILES,relative cell viability [1],relative GAG core protein HA-SDC1 amount per cell number [2],relative mutant VPS33A R498W amount [3]
Cn1c(=O)c2c(ncn2CC2OCCO2)n(C)c1=O [Doxofylline],0.935,inactive: 1.02,1.13
CCC(CC)[C@H](NC(C)=O)[C@@H]1[C@H](O)[C@@H](C(=O)O)C[C@H]1NC(=N)N [Peramivir Trihydrate],1.09,inactive: 0.936,1.21
C[C@]12CC[C@@H]3c4ccc(O)cc4CC[C@H]3[C@@H]1CC[C@@H]2OC(=O)CCC1CCCC1 [Estradiol Cypionate],1.03,inactive: 1.3,0.941
CN(C)C(=O)c1ccc(S(=O)(=O)c2ccc(NC(=O)[C@@](C)(O)C(F)(F)F)c(Cl)c2)cc1,1.25,active: 0.397,0.631
CN(C)C(=O)N[C@H]1CC[C@H](CCN2CCN(c3cccc(Cl)c3Cl)CC2)CC1 [Cariprazine],1.13,inactive: 0.684,0.314
CCCCN(CCCC)CC(O)c1cc(Cl)cc2c1-c1ccc(Cl)cc1/C2=C/c1ccc(Cl)cc1 (stereo not given) [Lumefantrine],1.06,inactive: 0.854,1.25
C[C@H](CCC(=O)O)[C@H]1CC[C@H]2[C@@H]3[C@H](O)C[C@@H]4C[C@H](O)CC[C@]4(C)[C@H]3CC[C@]12C [Chenodeoxycholic Acid],1.08,inactive: 0.7,1.26
Oc1c(Cl)cc(Cl)c(Cl)c1Cc1c(O)c(Cl)cc(Cl)c1Cl [Hexachlorophene],0.919,inactive: 0.518,1.48
C#C[C@]1(OC(C)=O)CC[C@H]2[C@@H]3CCC4=C[C@@H](OC(C)=O)CC[C@@H]4[C@H]3CC[C@@]21C [Ethynodiol diacetate],1.34,active: 0.254,0.771
COC1=C(OC)C(=O)C(C/C=C(\C)CC/C=C(\C)CC/C=C(\C)CC/C=C(\C)CC/C=C(\C)CC/C=C(\C)CC/C=C(\C)CC/C=C(\C)CC/C=C(\C)CCC=C(C)C)=C(C)C1=O [Coenzyme Q10],1.1,inactive: 1,1.54
Cc1c(OCC(F)(F)F)ccnc1C[S+]([O-])c1nc2ccccc2[nH]1 (stereo not given) [Lansoprazole],1.04,inactive: 0.645,0.844
C[C@H]1O[C@@H](n2cc(F)c(=O)[nH]c2=O)[C@H](O)[C@@H]1O [Doxifluridine],0.977,inactive: 0.763,1.24
Cc1ccccc1C(=O)Nc1ccc(C(=O)N2CCCC(O)c3cc(Cl)ccc32)c(C)c1 (stereo not given) [Tolvaptan],1.02,active: 0.484,0.668
CN1CCCCC1CCN1c2ccccc2Sc2ccc([S+](C)[O-])cc21 (stereo not given) [Mesoridazine Besylate],1.32,inactive: 0.748,0.647
C[N+](C)(C)C[C@H](O)CC(=O)[O-] [L-Carnitine inner salt],0.954,inactive: 0.644,1.15
Oc1c(Cl)cc(Cl)c2cccnc12 [Chloroxine],1.02,inactive: 0.644,4.7
CCCCOC(=O)c1ccc(O)cc1 [Butylparaben],1.06,inactive: 0.642,0.538
Cc1cnc(C(=O)O)c[n+]1[O-] [Acipimox],0.998,inactive: 0.903,1.64
OCCc1ccc(O)cc1 [Tyrosol],1.14,active: 0.417,0.831
O=C(Nc1cccc2c(=O)cc(-c3nnn[nH]3)oc12)c1ccc(OCCCCc2ccccc2)cc1 [Pranlukast],1.18,inactive: 0.854,1.26
CO[C@H]1O[C@@H]2O[C@@]3(C)CC[C@H]4[C@H](C)CC[C@@H]([C@H]1C)[C@@]24OO3 [Artemether*],0.778,active: 0.369,0.718
O=C(CCCN1CCC(O)(c2ccc(Cl)cc2)CC1)c1ccc(F)cc1 [Haloperidol],0.944,inactive: 1.05,1.37
O=C(O[C@@H]1Cc2c(O)cc(O)cc2O[C@@H]1c1ccc(O)c(O)c1)c1cc(O)c(O)c(O)c1 [(-)-epicatechin gallate],1.1,inactive: 1.09,1.19
COc1ccc(-c2cc(=O)c3c(O)cc(O[C@@H]4O[C@H](CO[C@@H]5O[C@@H](C)[C@H](O)[C@@H](O)[C@H]5O)[C@@H](O)[C@H](O)[C@H]4O)cc3o2)cc1O [Diosimin],1.1,inactive: 0.848,0.836
Oc1cc(O)c2c(c1)O[C@H](c1ccc(O)c(O)c1)[C@@H](O)C2 [(+)-Catechin hydrate],1.04,inactive: 0.737,0.933

SMILES,relative cell viability [1],relative GAG core protein HA-SDC1 amount per cell number [2],relative mutant VPS33A R498W amount [3]
O=C(Nc1c(Cl)cncc1Cl)c1ccc(OC(F)F)c(OCC2CC2)c1 [Roflumilast],1.02,inactive: 1.38,1.21
COCC1=C(C(=O)OC(C)OC(=O)OC(C)C)N2C(=O)[C@@H](NC(=O)/C(=N\OC)c3csc(N)n3)[C@H]2SC1 (stereo not given in full) [Cefpodoxime Proxetil],0.96,inactive: 1.07,0.992
O=C(NC(Cc1cc(=O)[nH]c2ccccc12)C(=O)O)c1ccc(Cl)cc1 (stereo not given) [Rebamipide],0.957,inactive: 0.983,1.43
Nc1ccn(C[C@@H](CO)OCP(=O)(O)O)c(=O)n1 [Cidofovir],1.02,inactive: 1.43,1.07
CCCNS(=O)(=O)Nc1ncnc(OCCOc2ncc(Br)cn2)c1-c1ccc(Br)cc1 [Macitentan],1.1,inactive: 1.04,0.839
NC(=O)NO [Hydroxyurea],1,inactive: 0.938,1.04
CC(=O)[C@H]1CC[C@H]2[C@@H]3CCC4=CC(=O)CC[C@]4(C)[C@H]3CC[C@]12C [Progesterone],1.04,inactive: 1.02,0.81
CCC[C@H](N[C@@H](C)C(=O)N1[C@H](C(=O)O)C[C@@H]2CCCC[C@@H]21)C(=O)OCC [Perindopril Erbumine],1.32,inactive: 1.58,1.05
COCCc1ccc(OCC(O)CNC(C)C)cc1 (stereo not given) [Metoprolol Tartrate],1.36,inactive: 0.626,1.24
CC(=O)[C@H]1CC[C@H]2[C@@H]3CC=C4C[C@@H](O)CC[C@]4(C)[C@H]3CC[C@]12C [Pregnenolone],1.18,inactive: 1.33,1.2
CCCCC1=NC2(CCCC2)C(=O)N1Cc1ccc(-c2ccccc2-c2nnn[nH]2)cc1 [Irbesartan],0.962,inactive: 0.926,1.08
CCNC(=O)[C@@H]1CCCN1C(=O)[C@H](CCCN=C(N)N)NC(=O)[C@H](CC(C)C)NC(=O)[C@@H](C)NC(=O)[C@H](Cc1ccc(O)cc1)NC(=O)[C@H](CO)NC(=O)[C@H](Cc1c[nH]c2ccccc12)NC(=O)[C@H](Cc1cnc[nH]1)NC(=O)C1CCC(=O)N1 (stereo not given in full) [Alarelin Acetate],1.06,inactive: 1.19,1.52
C[C@H]1CN(C[C@H](Cc2ccccc2)C(=O)NCC(=O)O)CC[C@@]1(C)c1cccc(O)c1 [Alvimopan],1.05,inactive: 1.37,1.47
NNC(=O)c1ccncc1 [Isoniazid],1.05,inactive: 0.923,1.42
"CC(C)NCC(O)COc1ccc(CC(N)=O)cc1 (racemic) [(R,S)-Atenolol]",1.02,inactive: 0.904,1.23
Cc1ccsc1C(=CCCN1CCC[C@@H](C(=O)O)C1)c1sccc1C [Tiagabine],1.05,inactive: 0.928,0.709
CC(C)CCCCC(=O)N[C@@H](CCN)C(=O)N[C@@H](CN[C@@H](CCN)C(=O)N[C@H]1CCNC(=O)[C@H]([C@@H](C)O)NC(=O)[C@H](CCN)NC(=O)[C@H](CCN)NC(=O)[C@H](CC(C)C)NC(=O)[C@@H](CC(C)C)NC(=O)[C@H](CCN)NC1=O)[C@@H](C)O.CCC(C)CCCCC(=O)N[C@@H](CCN)C(=O)N[C@@H](CN[C@@H](CCN)C(=O)N[C@H]1CCNC(=O)[C@H]([C@@H](C)O)NC(=O)[C@H](CCN)NC(=O)[C@H](CCN)NC(=O)[C@H](CC(C)C)NC(=O)[C@@H](CC(C)C)NC(=O)[C@H](CCN)NC1=O)[C@@H](C)O (stereo not given in full) [Colistin Sulfate],1.09,inactive: 0.998,0.973
CC(=O)Nc1ccccc1 [Acetanilide],0.958,inactive: 0.892,1.48
C[C@@H]1CCO[C@H]2Cn3cc(C(=O)NCc4ccc(F)cc4F)c(=O)c(O)c3C(=O)N12,1.1 and 1.06,inactive: 0.9 and inactive: 0.76,0.754 and 0.878
C[C@H](NCc1ccc(OCc2cccc(F)c2)cc1)C(N)=O [Safinamide Mesylate],0.96,inactive: 1.02,1.42
CC1CNc2c(cccc2S(=O)(=O)N[C@@H](CCCNC(=N)N)C(=O)N2CC[C@@H](C)C[C@@H]2C(=O)O)C1 (stereo not given in full) [Argatroban],1.38,inactive: 1.41,0.936
c1ccc(-c2ccc(C(c3ccccc3)n3ccnc3)cc2)cc1 (stereo not given) [Bifonazole],1.11,inactive: 0.882,0.955
CC[C@H]1OC(=O)[C@H](C)[C@@H](O[C@H]2C[C@@](C)(OC)[C@@H](O)[C@H](C)O2)[C@H](C)[C@@H](O[C@@H]2O[C@H](C)C[C@H](N(C)C)[C@H]2O)[C@](C)(O)C[C@@H](C)CN(C)[C@H](C)[C@@H](O)[C@]1(C)O [Azithromycin],1.12,inactive: 0.759,1.19
CC[N+](CC)(CC)CCOc1cccc(OCC[N+](CC)(CC)CC)c1OCC[N+](CC)(CC)CC [Gallamine Triethiodide],1.11,inactive: 0.684,1.17
Cn1c(=O)c2[nH]cnc2n(C)c1=O [Aminophylline],1.16,inactive: 1.56,0.678
